# PubChem BioAssay AID1508642 (National Center for Advancing Translational Sciences (NCATS), 2021)
# Out of some 43,000 compounds screened, about 200 (0.47%) were called active. About 12% were inconclusive and are not listed. Calls follow the shape of the dose curve; as a rule, active = well fitted cell-killing curve with a large enough effect; inconclusive = small, poorly fitted or top-dose-only effect, or effect the other way; inactive = flat fitted curve, though single readings scatter. The list shows a part of the results.
# Assay: Cell viability qHTS assay in S16 Pmp22-F2sN cells; also: nearly all actives have a fitted effect of over 65% in size
# Settings: S16 Pmp22-F2sN Schwann cells (luciferase reporters placed in the Pmp22 gene) viability, CellTiter-Glo, 24 h; series mostly up to 57.5 µM; activity change, negative = cytotoxicity: at the top concentration
# How it was run: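 Seed 500-1,000 S16 Pmp22-F2sN cells per well in phenol-red-free DMEM with 10% heat-inactivated FBS; pin-add 23 nL compound; incubate 24 h at 37C; add CellTiter-Glo, wait 15 min protected from light; read luminescence.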
# % is scaled to controls: 0 for no effect and ±100 for the full control effect; potency is read from the fitted curve at half-maximal effect.
SMILES,"activity change, negative = cytotoxicity",Potency
CCCOc1ccc(CNC(=O)c2[nH]c3cc(OC)ccc3c2Sc2ccccc2)cc1,inactive: -0.0375%,–
O=C(Cn1ncn2c(cc3ccccc32)c1=O)NCc1ccc(F)cc1,inactive: 8.8%,–
Cc1ccc(-c2cc(-c3ccccc3)c(C#N)c(SCC(O)CS(=O)(=O)Cc3ccccc3)n2)cc1 (centres undefined),inactive: -6.28%,–
CCC(=O)N1CCc2cc(S(=O)(=O)NC(Cc3ccccc3)C(=O)Nc3ccccc3C)ccc21 (centres undefined),inactive: -1.39%,–
O=S(=O)(c1ccc(Cl)cc1)c1nc(-c2ccco2)oc1SCc1ccccc1F,inactive: -13.2%,–
Cc1cccc(NC(=O)C(=O)NCC(c2ccc3c(c2)OCO3)N2CCN(c3ccccc3)CC2)c1 (centres undefined),inactive: 5.47%,–
O=C(Nc1sc2c(c1C(=O)Nc1ccccc1)CCC2)c1ccc(Br)cc1,inactive: 9.93%,–
CCOCCCNC(=O)C(c1ccccc1)N1Cc2ccccc2C1=O (centres undefined),inactive: 5.9%,–
CC(=O)c1cccc(NS(=O)(=O)c2cc3c(cc2C)n(C)c(=O)c(=O)n3C)c1,inactive: 1.44%,–
COc1cccc(Cc2nc3ccccc3nc2SCC(=O)N2CCCc3ccccc32)c1,inactive: -11.5%,–
COc1ccc(CNC(=O)CC(c2ccc(OC)cc2)N2Cc3ccccc3C2=O)cc1 (centres undefined),inactive: 7.78%,–
Cc1ccc(NC(=O)c2ccc(CN3CC(=O)N4CCCCC4C3=O)cc2)c(C)c1 (centres undefined),inactive: 12.5%,–
CCOc1cccc(C(=O)Nc2cc(C)c(O)c(-c3nc4ncccc4o3)c2)c1,inactive: -1.95%,–
Cc1ccc2c(=O)c(C(=O)c3ccc(F)cc3)cn(CC(=O)Nc3ccc4c(c3)OCCO4)c2n1,inactive: 8.51%,–
O=C(c1ccc2c(c1)N(Cc1ccccc1)C(=O)c1ccccc1S2(=O)=O)N1CCc2ccccc21,inactive: 9.9%,–
COc1ccc(OC)c(-n2c3c(cc(-c4nc(-c5ccc(Cl)cc5)cs4)c2=O)C(=O)CC(C)(C)C3)c1,inactive: -1.78%,–
CCCNC(=O)CN1C(=O)COc2ccc(S(=O)(=O)N3CCC(C)CC3)cc21,inactive: 7.14%,–
Cc1c(NC(=O)C(C)(C)Oc2ccc(Cl)cc2)cccc1-c1nc2ccccc2o1,inactive: 1.56%,–
CCOC(=O)c1c(NC(=O)c2cc(=O)c3cc(C)cc(C)c3o2)sc(C)c1C,inactive: -3.02%,–
Cc1ccc(-c2nn(CC(=O)NCc3ccccc3)c3c2cnc2ccc(F)cc23)cc1C,inactive: 13%,–
O=C(CSc1nccn1C1CCCC1)Nc1cc(C(F)(F)F)ccc1Cl,inactive: 4.12%,–
O=C(CS(=O)(=O)c1cccc2nsnc12)NCc1ccccc1,inactive: 6.11%,–
COc1cc(NC(=O)C(Cc2ccccc2)NS(=O)(=O)c2cccs2)cc(OC)c1 (centres undefined),inactive: 1.26%,–
COc1cc(OC)c(NC2=C(c3ccc(C(F)(F)F)cc3)C(=O)c3ccccc32)cc1Cl,inactive: -4.84%,–

SMILES,"activity change, negative = cytotoxicity",Potency
O=C(Cn1c(=O)nc(-c2ccccc2)c2ccccc21)N1CCN(c2ccc(F)cc2)CC1,inactive: -1.82%,–
O=C(O)CSc1nc2ccc(NC(=O)COc3ccc(Cl)cc3)cc2s1,inactive: -3.68%,–
Cc1ccc(-n2c(=O)c3c(c4cc(C)ccc4n3C)n(CC(=O)c3ccc(Cl)cc3)c2=O)cc1,inactive: 2.17%,–
CC(C)Oc1ccccc1NC(=O)CSc1nccn1C,inactive: -6.47%,–
C#CCn1c(=O)n(-c2cccc(Cl)c2C)c(=O)c2c3c(sc21)CN(C(C)=O)CC3,inactive: 0.706%,–
CC(=O)c1ccc(-n2c(CCC(=O)O)ccc2-c2cccs2)cc1,inactive: 0.0138%,–
O=C(CCS(=O)(=O)c1ccccc1)N(Cc1cccnc1)c1nc2ccc(F)cc2s1,–,active: 4.47 µM
Cc1ccc(C)c(CSc2nnc(C)n3c2cc2sccc23)c1,inactive: 1%,–
CCOc1ccc(CNC(=O)Cn2nc(C)c3c(C)n(-c4ccc(C)cc4)nc3c2=O)cc1,inactive: 11.6%,–
COc1ccc(C(=O)COC(=O)c2cc(-c3cccs3)nc3ccccc23)cc1,inactive: -1.53%,–
COc1ccc(OC)c(Nc2sc(C(=O)c3ccccc3)c(N)c2S(=O)(=O)c2ccccc2)c1,inactive: -1.09%,–
O=c1oc2ccccc2c(N2CCN(c3ccc(F)cc3)CC2)c1CN1CCCC1,inactive: -0.467%,–
Cc1cccc(N2CCN(S(=O)(=O)c3cc(C(=O)Nc4ccc(Oc5ccccc5)cc4)ccc3F)CC2)c1C,inactive: -23.6%,–
O=C(Cn1ncc2c([nH]c3ccccc32)c1=O)NCCCN1CCN(c2ccccc2)CC1,inactive: 8.45%,–
Cc1ccc(CNC(=O)Cc2csc3ccccc23)cc1,inactive: -9.61%,–
Cc1c(Cl)cccc1-n1ncc(C(=O)NC2CCCCC2)c1C1CCN(C(=O)OC(C)(C)C)CC1,inactive: 4.21%,–
CCOC(=O)c1cccc(NC(=O)c2oc3c(c2C)-c2nn(CC)cc2CC3)c1,inactive: -21.8%,–
CCOc1ccc(CCNC(=O)CSc2nnnn2-c2ccccc2)cc1OCC,inactive: 0.298%,–
COc1ccc(Br)cc1[C@@H]1Nc2ccc(C(=O)O)cc2[C@@H]2C=CC[C@@H]21,inactive: 10.3%,–
CCc1nn2c(=O)cc(COC(=O)c3ccccc3NC(=O)COc3ccc(C)c(C)c3)nc2s1,inactive: -8.33%,–
Cc1oc(-c2ccccc2F)nc1CN1CCC(C(=O)NCCc2ccccc2)CC1,inactive: 1.31%,–
CC(C(=O)Nc1ccc(OC(F)(F)F)cc1)N1Cc2ccccc2C1=O (centres undefined),inactive: -20.5%,–
CCCCn1cc(S(=O)(=O)c2cc(C)ccc2C)c(=O)c2cc(F)c(F)cc21,inactive: 0.98%,–
COc1cccc(C(=O)N2c3ncnn3C3(CCCCC3)[C@@H]3CCCC[C@@H]32)c1,inactive: -16.4%,–

SMILES,"activity change, negative = cytotoxicity",Potency
Cn1ncc2c(N3CCN(c4ccccc4F)CC3)ncnc21,inactive: -16.8%,–
CCOc1ccc(/C=C/c2nc(C#N)c(NC(C)c3ccccc3)o2)cc1 (centres undefined),inactive: 0.0145%,–
COc1ccc(C)cc1NC(=O)Nc1cccc(OCc2cc(=O)n3ccc(C)cc3n2)c1,inactive: 17%,–
Cc1ccccc1OCC(=O)NCC(c1ccc(Cl)cc1)N1CCCCC1 (centres undefined),inactive: 5.05%,–
CC(=O)N1CCc2cc(Br)cc(S(=O)(=O)N3CCC(C(=O)Nc4ccc(C(C)C)cc4)CC3)c21,inactive: -2.71%,–
CCOC(=O)c1ccc(-n2c(CCC(=O)O)ccc2-c2ccccc2)cc1,inactive: 6.37%,–
CN(Cc1ccccc1)S(=O)(=O)c1ccc(NC(=O)c2cc(=O)c3ccccc3o2)cc1,inactive: -50.4%,–
CCc1cccc(C)c1NC(=O)CN1C(=O)C2(SCC(=O)N2c2cccc(F)c2)c2ccccc21 (centres undefined),inactive: -21.9%,–
CCOC(=O)c1c(S(=O)(=O)N2CCCC(C(=O)NCc3cccc(C)c3)C2)c(C)n(C)c1C (centres undefined),inactive: 11.2%,–
COCCN(Cc1ccco1)C(=O)c1cc2c(=O)[nH]c3ccc(C)cc3c2s1,inactive: 7.92%,–
NC1=NC(c2cccc(Cl)c2)n2c(nc3ccccc32)N1 (centres undefined),inactive: -7.83%,–
CCCS(=O)(=O)Nc1cccc(-c2cn3ccc(C)cc3n2)c1,inactive: -5.18%,–
CCOc1ccc2c(c1)c(=O)c(S(=O)(=O)c1ccc(F)cc1)cn2CC(=O)Nc1ccccc1C,inactive: 6.87%,–
COc1ccc(CCNC(=O)c2cccc(Nc3nc4ccccc4nc3-n3nc(C)cc3C)c2)cc1OC,inactive: 0.321%,–
O=C(CSc1n[nH]c(-c2ccc(F)cc2)n1)NCc1ccccc1Cl,inactive: -3.35%,–
COc1ccc(C)cc1NS(=O)(=O)c1c(C(=O)N2CCC(C)CC2)c(C)n(C)c1C,inactive: -0.966%,–
COC(=O)c1ccc(NC(=O)CCCC(=O)OCC(=O)c2ccc(Cl)cc2)cc1,inactive: 7.67%,–
O=C(COc1ccccc1)NCC(c1ccc(Cl)cc1)N1CCOCC1 (centres undefined),inactive: 1.09%,–
Cc1ccc(-c2noc(-c3ccc(N4CCN(C)CC4)c([N+](=O)[O-])c3)n2)cc1,inactive: 1.31%,–
CC(C)c1nn2c(=O)cc(COC(=O)c3cccs3)nc2s1,inactive: -17.8%,–
Cc1nc2cccnc2n1-c1cccc(C(=O)NCCN(C)C)c1,inactive: -0.824%,–
CC(=O)Nc1ccc2nc3c(=O)n(C)c(=O)n(C)c3nc2c1C,inactive: 1.23%,–
COc1ccccc1CNC(=O)C(C)n1c(=O)cc(-c2ccccc2)c2c(C)nn(C)c21 (centres undefined),inactive: -3.22%,–
Cc1cccc(OC(=O)c2cc(-c3ccc(C)c(C)c3)on2)c1,inactive: 12.9%,–

SMILES,"activity change, negative = cytotoxicity",Potency
O=C1CCSC2(C(=O)N(Cc3ccc(F)cc3)c3ccccc32)N1c1ccc(Cl)cc1 (centres undefined),inactive: 27.5%,–
COc1ccc(Cl)cc1NC(=O)N1CCN(Cc2cc(=O)n3nc(-c4ccccc4)sc3n2)CC1,inactive: -1.82%,–
N#Cc1nc(-c2ccc(COc3ccccc3)o2)oc1N1CCN(c2ccccc2)CC1,inactive: 1.72%,–
CCc1ccc(CNC(=O)c2cnc3sc(N4CCOCC4)nn3c2=O)cc1,inactive: 15.2%,–
Cc1oc(-c2ccc(C(=O)NCc3ccc(F)cc3)cc2)nc1CS(=O)c1ccccc1 (centres undefined),inactive: -28.3%,–
CCOc1ccc(/C=C/c2nc(C#N)c(NC3CCCCC3)o2)cc1,inactive: 6.56%,–
CCN(CC)CCNC(=O)c1ccc(-c2nc(CS(=O)(=O)c3ccc(C)cc3)c(C)o2)cc1,inactive: -16.2%,–
CC(C)c1ccc(NC(c2nnc(-c3ccccc3)o2)c2ccc(F)cc2Cl)cc1 (centres undefined),inactive: -0.489%,–
COc1ccccc1-c1nnc(SCC(N)=O)o1,inactive: 5.83%,–
CC(=O)c1cc2c(cc1N/C(=N/S(=O)(=O)c1ccccc1)c1ccc(Cl)cc1)OCO2,inactive: 0.93%,–
Cc1cc(C)cc(C(=O)Nc2c(C(=O)Nc3ccccc3F)oc3ccccc23)c1,inactive: 0.0141%,–
CC(=O)c1cc(-c2ccccc2)n(CCC(=O)Nc2ccc(C(C)C)cc2)c1C,inactive: -4.38%,–
COc1ccc(-c2cc(C(F)(F)F)n3nc(C(=O)O)c(Cl)c3n2)cc1OC,inactive: 0.739%,–
CCOc1ccc(NC(=O)Cn2cc(C(=O)c3ccc(F)cc3)c(=O)c3cc4c(cc32)OCCO4)cc1,inactive: 3.55%,–
CC(C)(C)OC(=O)N1CCC(c2c(C(=O)NCCN3CCCC3)cnn2-c2ccc(Cl)cc2)CC1,inactive: -1.68%,–
COc1ccc(NC(=O)Cn2cnc3ccc(S(=O)(=O)N4CCC(C)CC4)cc3c2=O)cc1Cl,inactive: 21.9%,–
Cc1ccc(-n2ccnc(NCCc3ccc(S(N)(=O)=O)cc3)c2=O)c(C)c1,inactive: -21.1%,–
Cc1cccc(OCC(=O)Nc2ccc3nc(Nc4cccc(C(F)(F)F)c4)cc(C)c3c2)c1,inactive: 28.2%,–
Cc1ccc(CNC(=O)c2oc3ccc(S(=O)(=O)N4CCC(C)CC4)cc3c2C)cc1,inactive: -4.41%,–
COc1ccccc1CNC(=O)c1ccc2c(c1)N(Cc1cc(C)ccc1C)C(=O)c1ccccc1S2,inactive: -2.94%,–
CCCCNC(=O)c1cc2c(=O)n3cccc(C)c3nc2s1,inactive: 17.3%,–
CC(=O)OCc1cnc(C)c2oc(=O)c(C(=O)Nc3ccc(C)cc3Cl)cc12,inactive: -0.733%,–
